Measured values published in PubChem BioAssay AID686979 (National Center for Advancing Translational Sciences (NCATS), 2013).
Several values for one entry are separate records, joined by “and”; a condition that tells them apart may be missing. Identical values can stand only once. The whole screen tested about 420,000 compounds, of which about 50,000 (12%) were called active. This list was built around the results that the source calls inconclusive (neither active nor inactive); the mix of calls is not that of the screen. Calls follow the shape of the dose curve; as a rule, active = well fitted inhibition curve with a large enough effect; inconclusive = small, poorly fitted or top-dose-only effect; inactive = flat fitted curve, though single readings scatter. A potency beside an inconclusive call is a rough fit, not a confirmed value.

Assay: qHTS for Inhibitors of human tyrosyl-DNA phosphodiesterase 1 (TDP1): qHTS in cells in presence of CPT; also: nearly all actives have a fitted effect of over 55% in size
Conditions: chicken DT40 Tdp1-/-;hTDP1 cells + 20 nM CPT, ATP luminescence, 48 h; activity change, negative = growth inhibition: at 46.2 µM (top of the series) unless noted
Outline: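 Chicken DT40 Tdp1-/- cells stably complemented with human TDP1 were seeded at 400 cells/well in medium containing 20 nM camptothecin, exposed to pin-transferred compounds, and grown at 37 °C for at least 48 hr. Viability was read as ATP luminescence.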
% is scaled to controls: 0 for no effect and ±100 for the full control effect; potency is read from the fitted curve at half-maximal effect; tags tell the direction and shape of the fitted curve.

| SMILES | Potency | activity change, negative = growth inhibition |
| --- | --- | --- |
| COc1cccc(OC)c1CN1CCCC(C(=O)c2cccc(Cl)c2)C1 (stereo not drawn) | active: 18.4 µM | – |
| CCc1nccc2c1[nH]c1ccccc12 | inactive | – |
| O=C(COc1ccc(S(=O)(=O)N2CCCCC2)cc1)N1CCN(Cc2ccccc2)CC1 | inconclusive: 29.1 µM [inhibitor, single point] | – |
| N#CC1=C(N)Oc2cc(O)ccc2C1c1ccc2c(c1)OCO2 (stereo not drawn) | inactive | – |
| COc1ccc(-n2nnnc2C(C2CC2)N2CCC(n3c(=O)[nH]c4ccccc43)CC2)cc1 (stereo not drawn) | inconclusive: 20.6 µM [inhibitor, single point] | – |
| O=c1[nH]c2ccccc2c(=O)n1-c1ccc(Cl)cc1Cl | active: 16.4 µM | – |
| Cc1nn(-c2nccs2)c2c1C(=O)CC(C)(C)C2Br (stereo not drawn) | inconclusive: 29.1 µM [inhibitor, single point] | – |
| Cc1nc2c(c(C)nn2-c2ccccc2)c(C)c1CCC(=O)N1CCC2(CC1)OCCO2 | inconclusive: 29.1 µM [inhibitor, single point] | – |
| CC(C)CN1CCN(Cc2ccc(F)cc2Cl)CC1CCO (stereo not drawn) | inactive | – |
| COC1CC(OC2CC[C@@]3(C=O)C4CC[C@]5(C)C(C6=CC(=O)OC6)CC[C@@]5(O)C4CC[C@]3(O)C2)OC(C)C1O (stereo partly drawn) | active: 1.3 µM | – |
| COC(=O)C1=C(c2cccc(OCc3ccccc3)c2)C[C@@H]2CC[C@H]1N2C(=O)NCc1ccc(Br)cc1 | inconclusive: 23.1 µM [inhibitor, single point] | – |
| CN(CCc1ccccc1)Cc1c[nH]c2ccccc12 | active: 0.82 µM | – |
| CCc1ccc(CN2CCN(C(=O)Cc3ccccc3)CC2)cc1 | inconclusive: 18.4 µM [inhibitor, single point] | – |
| COc1cccc(-n2c(/C=C/c3cccc(C)c3)nc3ccccc3c2=O)c1 | inconclusive: 29.1 µM [inhibitor, single point] | – |
| COc1ccc2c(c1)NP(=S)(c1ccccc1)N2C (stereo not drawn) | inactive | – |
| O=C(Cc1ccccc1)N1CCN(Cc2ccc(F)cc2)CC1 | inactive | – |
| O=P(/C(=N/O)N1CCCCC1)(N1CCOCC1)N1CCOCC1 | inactive | – |
| CN(c1ccc(O)cc1)c1ccc([N+](=O)[O-])c2nonc12 | inconclusive: 23.1 µM [inhibitor, single point] | – |
| O=c1c2ccccc2nc(/C=C/c2ccc3c(c2)OCO3)n1-c1ccccc1 | inconclusive: 18.4 µM [inhibitor, single point] | – |
| O=C(CNC(=O)c1cccs1)NCC(=O)OCC(=O)c1ccc([N+](=O)[O-])cc1 | active: 18.4 µM | – |
| O=C1NCN(c2ccccc2)C12CCN(C(c1cc3ccccc3o1)c1nnnn1C1CCCC1)CC2 (stereo not drawn) | inconclusive: 25.9 µM [inhibitor, single point] | – |
| O=C(NCc1ccc2c(c1)CCN2C(=O)c1ccccc1)Nc1cccc(C(F)(F)F)c1 | active: 14.6 µM | – |
| CN1Cc2cnnn2-c2ccccc2C1c1ccccc1 (stereo not drawn) | inactive | – |

| SMILES | Potency | activity change, negative = growth inhibition |
| --- | --- | --- |
| CC(C)(C)OC(=O)N(CCc1ccccc1)Cc1ccc(OCc2cccc(NC(=O)c3ccccc3)c2)cc1 | inconclusive: 23.1 µM [inhibitor, single point] | – |
| COC(=O)C1=C(c2ccc(OCc3ccccc3)cc2)C[C@@H]2CC[C@H]1N2C(=O)NCCCc1ccccc1 | active: 14.6 µM | – |
| CN(C(=O)Oc1ccc(C(=O)c2ccc(Cl)cc2)cc1)c1ccccc1 | active: 23.1 µM | – |
| Cc1ccc2c(c1)C1CN(C)CCC1N2C(=O)Nc1ccc(Cl)cc1 (stereo not drawn) | inconclusive: 25.9 µM [inhibitor, single point] | – |
| O=c1c2ccccc2nc(-c2ccccc2)n1-c1ccc(O)cc1 | inconclusive: 29.1 µM [inhibitor, single point] | – |
| Cc1cccc(-n2c(CC3C(=O)Nc4ccc(C)cc43)nc3ccccc3c2=O)c1 (stereo not drawn) | inconclusive: 16.4 µM [inhibitor, single point] | – |
| COC(=O)C1=C(c2ccc(-c3ccccc3)c(F)c2)C[C@@H]2CC[C@H]1N2C(=O)NC(C)C | active: 13 µM | – |
| Cc1ncc(CO)c2c1Oc1nc(-c3ccccc3Cl)nc(SCc3ccccc3F)c1C2 | active: 14.6 µM | – |
| COC(=O)C(O)(c1ccc(N(C)C(=O)c2ccc(Cl)c(Cl)c2)cc1)C(F)(F)F (stereo not drawn) | inconclusive: 8.2 µM [inhibitor, partial curve, poor fit] | – |
| O=C1NC(=O)N(C2CCCCC2)C(=O)C1C1c2ccccc2C(=O)N1Cc1ccccc1 (stereo not drawn) | inactive | – |
| O=C(C1CC(=O)N(c2ccc(F)c(Cl)c2)C1)N1CCC2(CC1)OCCO2 (stereo not drawn) | inconclusive: 8.2 µM [inhibitor, partial curve, poor fit] | – |
| CCOC(=O)[C@]12Cc3ccccc3[C@H]1N(Cc1ccccc1)C(=O)c1ccccc12 | inconclusive: 22.4 µM [inhibitor, single point] and inconclusive: 29.1 µM [inhibitor, single point] | – |
| CC(C)CC1(CCc2ccccc2)C(=O)NC(=O)NC1=O | inactive | – |
| CC(=NCCCN1CCOCC1)c1c(O)n(Cc2ccccc2)c(=O)[nH]c1=O | inactive | – |
| COc1ccc(OC)c([C@@H](O)[C@H](C)N)c1 | inactive | – |
| COC(=O)C1=C(c2ccc(Cl)c(C(F)(F)F)c2)C[C@@H]2CC[C@H]1N2C(=O)NC(C)C | inconclusive: 29.1 µM [inhibitor, single point] | – |
| CCc1nc2ccc(C(=O)N3CCN(C(=O)c4ccco4)CC3)cn2c1N(C)Cc1ccc(OC)cc1 | inconclusive: 23.1 µM [inhibitor, single point] | – |
| C=CCn1c(O)c(C(C)=NCC2CCCO2)c(=O)[nH]c1=O (stereo not drawn) | inactive | – |
| CCOC(=O)C1(c2ccccc2)CCN(CC(=O)Nc2ccc(C)cc2)CC1 | inconclusive: 23.1 µM [inhibitor, single point] | – |
| Cn1c(=O)cc(SCC(=O)N2CCC3(CC2)OCCO3)c2ccc(Cl)cc21 | – | inconclusive: -30.6% [inhibitor] |
| CCOc1cc2c(cc1OCC)-n1cccc1C(c1cccc(OCC)c1O)NC2 (stereo not drawn) | inconclusive: 18.4 µM [inhibitor, single point] | – |
| COc1ccc(-c2nc(SCC(=O)NC(C)CCc3ccccc3)n[nH]2)cc1 (stereo not drawn) | active: 11.6 µM | – |
| CC1=CC2/C=C(\C)CCC(O)C(O)/C=C/C(=O)C23C(=O)NC(CC(C)C)C3C1C (stereo not drawn) | active: 3.66 µM | – |

| SMILES | Potency | activity change, negative = growth inhibition |
| --- | --- | --- |
| Brc1ccc(-[n+]2c(-c3ccccc3)cc(-c3ccccc3)cc2-c2ccccc2)cc1 | active: 10.3 µM | – |
| O=c1c2ccccc2cnn1Cc1n[nH]c(=S)n1C1CC2CCC1C2 (stereo not drawn) | inconclusive: 11.6 µM [inhibitor, partial curve, poor fit] | – |
| COc1ccc(CCNCc2ccc(SC)cc2)cc1 | inconclusive: 29.1 µM [inhibitor, single point] | – |
| O=C(c1ccc2c(c1)ncn2C1CCCCCC1)N1CCC2(CC1)OCCO2 | inconclusive: 29.1 µM [inhibitor, single point] | – |
| CCOC(=O)c1cc2cc(OC)ccc2n1C1CCN(Cc2ccccc2)CC1 | inconclusive: 29.1 µM [inhibitor, single point] | – |
| CC(=O)N1N=C2C3CCN(CC3)C2C1c1cccc2ccccc12 (stereo not drawn) | inactive | – |
| CC(=O)c1ccc2c(c1)C1C(Cl)C(Sc3ccccc3[N+](=O)[O-])CC1C(c1ccccc1)N2 (stereo not drawn) | active: 11.6 µM | – |
| O=C(CNC(=O)c1ccccc1Cl)Nc1ccc(Br)cc1C(=O)c1ccccc1 | active: 18.4 µM | – |
| COC(=O)c1c(-c2ccc(Cl)cc2)noc1N1CCN(c2ccc(C(C)=O)cc2)CC1 | inconclusive: 23.1 µM [inhibitor, single point] | – |
| CC(=O)OC1C(O)C(C)OC(OC2C(OC(=O)C3CCC4C(C3)OC3(CC(OC(=O)/C=C/c5ccccc5)C(C)CO3)C43CO3)OC(C)C(O)C2OC(C)=O)C1O (stereo not drawn) | active: 0.146 µM | – |
| COc1cc2c(cc1OC)CC[N+](C)=C2 | inactive | – |
| COC(=O)C1=C(c2cccc(OCc3ccccc3)c2)C[C@@H]2CC[C@H]1N2C(=O)NCc1ccc([N+](=O)[O-])cc1 | active: 18.4 µM | – |
| CC(=O)O[C@@]12CO[C@@H]1C[C@@H](O)[C@@]1(C)C(=O)[C@H](O)C3=C(C)[C@@H](OC(=O)[C@H](O)[C@@H](NC(=O)c4ccccc4)c4ccccc4)C[C@@](O)([C@@H](OC(=O)c4ccccc4)C12)C3(C)C (stereo partly drawn) | active: 0.0461 µM | – |
| COC(=O)C1=C(c2cc3ccccc3o2)C[C@@H]2CC[C@H]1N2C(=O)NCc1ccco1 | active: 16.4 µM | – |
| O=C1NC(=O)C2(Cc3ccccc3N3CCCC32)C(=O)N1Cc1ccccc1 (stereo not drawn) | inconclusive: 23.1 µM [inhibitor, partial curve, poor fit] | – |
| Nc1nonc1C(=O)N/N=C/c1ccc([N+](=O)[O-])o1 | active: 7.31 µM | – |
| COc1ccc(-n2c(O)c(/C=C/C=Nc3ccccc3)c(=O)[nH]c2=O)cc1 | inactive | – |
| CC(C)(O)/C=C/C(=O)[C@](C)(O)C1[C@H](O)C[C@@]2(C)C3CC=C4C(C[C@H](O)[C@@H](O)C4(C)C)[C@]3(C)C(=O)C[C@]12C (stereo partly drawn) | active: 0.291 µM | – |
| COC(=O)c1ccccc1NC(=O)N1C[C@@H]2C[C@@H](C1)c1cccc(=O)n1C2 | inactive | – |
| CC1O[C@@H](O[C@@H]2C(O)C[C@H](O[C@@H]3C(O)C[C@@H](OC4CC[C@@]5(C)C6CC[C@]7(C)C(C8=CC(=O)OC8)CC[C@@]7(O)C6CC[C@@H]5C4)OC3C)OC2C)CC(O)[C@H]1O (stereo partly drawn) | active: 1.03 µM | – |
| CCOC(=O)C1CCN(/C=C2\C(=O)NC(=S)N(CC)C2=O)CC1 | inactive | – |
| COc1ccc(CCNCc2cc(OC)cc(OC)c2)cc1 | inconclusive: 29.1 µM [inhibitor, single point] | – |
